The list shows a part of the results.

The assay deals with T1, OsWOX13 (Oryza sativa, UniProt Q5QMM3 1-267).
T1 sequence: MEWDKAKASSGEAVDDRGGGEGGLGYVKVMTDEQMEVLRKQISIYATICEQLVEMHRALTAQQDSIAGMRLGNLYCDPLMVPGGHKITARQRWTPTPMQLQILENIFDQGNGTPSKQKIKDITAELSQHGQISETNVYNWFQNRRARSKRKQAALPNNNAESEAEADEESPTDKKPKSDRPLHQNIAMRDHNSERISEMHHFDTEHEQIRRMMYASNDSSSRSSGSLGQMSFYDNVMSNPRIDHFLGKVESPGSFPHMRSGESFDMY
As to the kind of experiment: protein-binding microarray (RPBM); PBS, 2% BSA, 51.3 ng/ul salmon testes DNA, 50 uM zinc acetate, 200 nM TF, 25 C, 1 h; high values mean tight binding. The settings on record: protein: recombinant; tags: N-terminal polyhistidine and DsRed monomer fusion (pET32a); label: CyDye5-dUTP incorporated in the synthesized complementary strand; 3' TTTTT single-stranded linker to array surface; dsDNA, one strand shown. The procedure, abridged:
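Binding signal is defined as the fluorescence intensity of each feature in arbitrary units, read on an Axon 4000B scanner. Transcription factors with N-terminal polyhistidine and DsRed fusions came from E. coli BL21-CodonPlus and were purified on Ni–NTA. They were incubated at 200 nM for 1 h at 25 °C on a custom Agilent array that had been made double-stranded with Cy5-dUTP, with 50 µM zinc acetate present, and the array was washed.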
As for “CTATCAATTTATTATAGTCATCTGGTTGATCTCATAAACACGGAGTCACCTAGTGCAG”, the binding signal is 20800 fluorescence intensity (a.u.). For “CAGACTAATTTTCAGTGGCATATAAGGGATTCTCTCTTGTCGGAGTCACCTAGTGCAG”, the binding signal is 6060 fluorescence intensity (a.u.). The result for “AACAAGTAACCGATTGATTAATCAGAACAGGTGCTGATTACGGAGTCACCTAGTGCAG” reads 15100 fluorescence intensity (a.u.); that for “CCACCAATCATAGCTAACGACGATGGAATTAGAATATGTTCGGAGTCACCTAGTGCAG”, 17700 fluorescence intensity (a.u.); that for “CATTACATCCAATCCAAGCGTGATGACATATCATCATCCTCGGAGTCACCTAGTGCAG”, 3490 fluorescence intensity (a.u.). The result for “CGGGATGATGATGAGGAGCTGTTTGAGGGGAACTGGGTGGCGGAGTCACCTAGTGCAG” reads 6080 fluorescence intensity (a.u.); that for “CTAAATTTCATATATTCTTCGTAGCTCATTTTCTTTGACGCGGAGTCACCTAGTGCAG”, 6400 fluorescence intensity (a.u.); that for “AAATATTTAATTAATTCTTCTGTCCTCGACACCTCTAAAACGGAGTCACCTAGTGCAG”, 6730 fluorescence intensity (a.u.). As for “TGTAGTAGTATTAAATTAATTTAGTTAATCAGGTAGTGGGCGGAGTCACCTAGTGCAG”, the figure is 10600 fluorescence intensity (a.u.). Take “ACTTTACCAAATTTCGGTCTCTTCATTTAGCATTATCAAACGGAGTCACCTAGTGCAG”: the binding signal was 3410 fluorescence intensity (a.u.). As for “GCATCAATTTAAAACTCGTAAAGTATTATTATTGATAAAGCGGAGTCACCTAGTGCAG”, the figure is 4580 fluorescence intensity (a.u.).

As to “TTGAAACTACAAATCTATCGAAACATTAATAGATAGTCGCCGGAGTCACCTAGTGCAG”, the binding signal was 3770 fluorescence intensity (a.u.). As for “TATATATATATATATATATATATATATAACACACACCGTGCGGAGTCACCTAGTGCAG”, the figure is 33500 fluorescence intensity (a.u.).

As for “ATGACGATTGAGAGAGATGATGTAACTATTTATACTCATTCGGAGTCACCTAGTGCAG”, the binding signal is 10800 fluorescence intensity (a.u.). As for “ATAAAGATTGAAAGGCCCAAAACGAATGTACCCGAATTCACGGAGTCACCTAGTGCAG”, the figure is 8310 fluorescence intensity (a.u.). As for “TTTTAAGTTAATGATTAGAGCCTTTATCGTCTCAACTATTCGGAGTCACCTAGTGCAG”, the figure is 5570 fluorescence intensity (a.u.); as for “AACCAAATTAAACACAACATCACATGGAAAACTACTCTAACGGAGTCACCTAGTGCAG”, 4460 fluorescence intensity (a.u.). With “TTAATTTAATCACGCCACAAATTCCTGTCACCTTCGACCGCGGAGTCACCTAGTGCAG”, the binding signal was 32200 fluorescence intensity (a.u.). The result for “TGGGGATTGGATTGCTATCTCGCGCGAGTGCTAGGAAGCTCGGAGTCACCTAGTGCAG” reads 5180 fluorescence intensity (a.u.); that for “TTGTAAATTTGTGGACTTAAGTGAAACCTCATGACAAATTCGGAGTCACCTAGTGCAG”, 3980 fluorescence intensity (a.u.); that for “GTAATATAAGATTGGAATGGATAAATTCTAATACGAAGTACGGAGTCACCTAGTGCAG”, 5640 fluorescence intensity (a.u.). As for “TGTAATTAAAGTAATTTGGATAATAAAGTAAGTCACAAATCGGAGTCACCTAGTGCAG”, the figure is 15100 fluorescence intensity (a.u.); as for “TCCGTAATTGAATTCGTCATCTGATCCGATCCGAACGACCCGGAGTCACCTAGTGCAG”, 43000 fluorescence intensity (a.u.); as for “ACCAATTAAGACTACAAATTTGAGCAGATTCAAATTAAGCCGGAGTCACCTAGTGCAG”, 11700 fluorescence intensity (a.u.). The result for “GTTCTCAATAAATTGAACCCTCTCCAATCTCCATGGCCTCCGGAGTCACCTAGTGCAG” reads 4140 fluorescence intensity (a.u.). As for “TAACAAAACTGACAGAGTGATAAAAGAGGTGCAGATTGTGCGGAGTCACCTAGTGCAG”, the binding signal was 6190 fluorescence intensity (a.u.).

Consider “AATTATGATTGGATCATCCACAACAACCTCACAACACAAACGGAGTCACCTAGTGCAG”, for which the binding signal was 25500 fluorescence intensity (a.u.).

“CTTGATTATACTTGAGATTTCCAGAAGCCTGCATTTCAGCCGGAGTCACCTAGTGCAG”: the binding signal was 28700 fluorescence intensity (a.u.). As for “AACAATTTTAGATAATCAGTAGGTATGTCTACTAATTGGTCGGAGTCACCTAGTGCAG”, the figure is 6280 fluorescence intensity (a.u.); as for “TCAAATAAATGTTTATAATAATTAATAATACTCGATTAACCGGAGTCACCTAGTGCAG”, 3350 fluorescence intensity (a.u.); as for “TCTGTAAATAGATGGATGAACAGAGTATCTGTAGTCTGTACGGAGTCACCTAGTGCAG”, 12200 fluorescence intensity (a.u.). The result for “ATGATGATGTATTTGATGTTGCATGCTTTGAATGAGTATTCGGAGTCACCTAGTGCAG” reads 7940 fluorescence intensity (a.u.); that for “TTTTGATTCGATTGGATGAATGGTATACTTAGTATGGAATCGGAGTCACCTAGTGCAG”, 8200 fluorescence intensity (a.u.).

Consider “GTTTTGTGACACATTTTCTAATTTACAACACGGCACTCCACGGAGTCACCTAGTGCAG”, for which the binding signal was 3160 fluorescence intensity (a.u.).

With “GCTAATTAATAATTATGGTTGAACATAGCTGTAAAGATGCCGGAGTCACCTAGTGCAG”, the binding signal is 49800 fluorescence intensity (a.u.). As for “TGTGAAATTTACTCAATCTTGAGTCGGACCATCGTTGTCTCGGAGTCACCTAGTGCAG”, the figure is 10500 fluorescence intensity (a.u.); as for “GGTGTAATTAGCTATCCTGTGAAAAGGTGTATTGGATCATCGGAGTCACCTAGTGCAG”, 22500 fluorescence intensity (a.u.); as for “GCATTTGCTAATGATGGATTAATTAGGCTTAATAGATTCGCGGAGTCACCTAGTGCAG”, 11800 fluorescence intensity (a.u.). As for “AGCAAATTGTCGGCTTGAATTGGTTTGGTTACTGGTTTAGCGGAGTCACCTAGTGCAG”, the figure is 7160 fluorescence intensity (a.u.); as for “TAATACTTCTAATTAGTGTCGAAACATCCGATGTGACAGGCGGAGTCACCTAGTGCAG”, 7480 fluorescence intensity (a.u.). As for “TACAAATTTAACAAGAATTTTGATTCTTTTCGTGGTTGCACGGAGTCACCTAGTGCAG”, the figure is 12000 fluorescence intensity (a.u.); as for “TATAATTTATCTAATTAAGGTCTTTGAAAACATGCTGTGACGGAGTCACCTAGTGCAG”, 34900 fluorescence intensity (a.u.).

The values above are taken from article PMC7819943, “Rice protein-binding microarrays: a tool to detect cis-acting elements near promoter regions in rice”.
